Measured values as given in the supplement of paper PMC3334620.
The full ranking holds about 33,000 sequences; the median of “E-score (-0.5 to 0.5)” is about -0.036, and the highest 2% start at about 0.37. The list shows a part of the results.

Molecular target: T1, Yer064c (UniProt P40041)
T1 sequence: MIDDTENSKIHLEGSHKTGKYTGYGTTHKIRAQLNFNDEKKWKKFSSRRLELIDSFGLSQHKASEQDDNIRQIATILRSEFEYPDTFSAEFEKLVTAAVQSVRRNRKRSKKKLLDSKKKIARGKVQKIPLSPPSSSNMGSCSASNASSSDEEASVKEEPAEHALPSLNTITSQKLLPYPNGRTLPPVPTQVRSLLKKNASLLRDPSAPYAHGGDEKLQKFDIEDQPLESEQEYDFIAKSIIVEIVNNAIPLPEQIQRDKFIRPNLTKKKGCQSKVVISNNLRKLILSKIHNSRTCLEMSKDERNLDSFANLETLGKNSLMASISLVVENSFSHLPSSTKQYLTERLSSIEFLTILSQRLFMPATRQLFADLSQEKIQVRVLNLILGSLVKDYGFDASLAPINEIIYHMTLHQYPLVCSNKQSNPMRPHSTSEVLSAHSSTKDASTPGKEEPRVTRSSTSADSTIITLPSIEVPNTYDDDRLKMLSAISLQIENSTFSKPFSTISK
Experiment: PBM E-score (8-mer binding enrichment) (E-score (-0.5 to 0.5)); higher = stronger / more preferred TF binding; most listed sequences are background and not binding sites
Settings: protein concentration: 200 nM; construct: GST-full length
Method in brief: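 Yeast transcription factors, full-length or as DNA-binding domains, were expressed with a GST tag using PURExpress in vitro transcription/translation. At about 100-200 nM they were applied to universal all-10-mer Agilent arrays, double-stranded by primer extension on fresh or once-stripped slides. Fluorescent anti-GST detected bound protein, and masliner normalised the scans. E-scores for ungapped eight-base words, pooled with reverse complements, came from the Universal PBM Analysis Suite.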

Q: CGGTCTCA was tested. Which “PBM E-score” value did it give?
A: 0.0693

Q: Which “PBM E-score” value does the source give for GTCAAGCA here?
A: -0.0363

Q: With AGTTAAAT as the sequence, how does the “PBM E-score” value read?
A: 0.00649

Q: ATTCAACC was tested. Which “PBM E-score” value did it give?
A: 0.111

Q: For AGTCGCTG, which “PBM E-score” value is on record?
A: 0.303

Q: For TAAGTGGA, which “PBM E-score” value is on record?
A: 0.198

Q: How did the “PBM E-score” value turn out when ATCTCCAA was run?
A: 0.0358

Q: With CCGGAAGC as the sequence, how does the “PBM E-score” value read?
A: -0.385

Q: ACAGTAAG was tested. Which “PBM E-score” value did it give?
A: 0.125

Q: For AAGTGAGA, which “PBM E-score” value is on record?
A: 0.124

Q: For TAACTGCA, which “PBM E-score” value is on record?
A: -0.0363

Q: Which “PBM E-score” value does the source give for CTACAATA here?
A: 0.0828

Q: With CGCTCGTA as the sequence, how does the “PBM E-score” value read?
A: 0.074

Q: How did the “PBM E-score” value turn out when TAGCGGGA was run?
A: -0.235

Q: GCTACAAC was tested. Which “PBM E-score” value did it give?
A: 0.0558

Q: With TCGATGAA as the sequence, how does the “PBM E-score” value read?
A: 0.0335

Q: ATCATCAA was tested. Which “PBM E-score” value did it give?
A: 0.285

Q: ATTCTCTC was tested. Which “PBM E-score” value did it give?
A: -0.07

Q: GAGACGAA was tested. Which “PBM E-score” value did it give?
A: -0.0519

Q: For CGAGACCC, which “PBM E-score” value is on record?
A: -0.221

Q: How did the “PBM E-score” value turn out when CGTGTTCC was run?
A: 0.077

Q: For CTTCGTTC, which “PBM E-score” value is on record?
A: -0.252

Q: Which “PBM E-score” value does the source give for GCGTCTCC here?
A: -0.246

Q: For GAAAAAAC, which “PBM E-score” value is on record?
A: -0.0356

Q: Which “PBM E-score” value does the source give for CTTTCTCA here?
A: 0.152

Q: How did the “PBM E-score” value turn out when ATAATGAT was run?
A: 0.242

Q: AGGTGCCA was tested. Which “PBM E-score” value did it give?
A: -0.163

Q: For CTTGATGC, which “PBM E-score” value is on record?
A: -0.159

Q: With AGATGGAG as the sequence, how does the “PBM E-score” value read?
A: -0.11

Q: For CACCTGGC, which “PBM E-score” value is on record?
A: -0.0538

Q: GAGTAGGC was tested. Which “PBM E-score” value did it give?
A: 0.0237

Q: For GCGGTAGC, which “PBM E-score” value is on record?
A: -0.199

Q: ATACCACA was tested. Which “PBM E-score” value did it give?
A: -0.165

Q: With ATACGGTA as the sequence, how does the “PBM E-score” value read?
A: 0.0045

Q: How did the “PBM E-score” value turn out when ACCCAACC was run?
A: -0.00195

Q: With TCGGCAGA as the sequence, how does the “PBM E-score” value read?
A: 0.106

Q: For AAGAACTT, which “PBM E-score” value is on record?
A: 0.0118

Q: For CCAATCTC, which “PBM E-score” value is on record?
A: -0.0242

Q: How did the “PBM E-score” value turn out when ACCTAACC was run?
A: -0.0292

Q: GTATCTTA was tested. Which “PBM E-score” value did it give?
A: 0.0828

Q: For CCAAATAA, which “PBM E-score” value is on record?
A: 0.0058

Q: How did the “PBM E-score” value turn out when ATGGTATG was run?
A: 0.0703

Q: How did the “PBM E-score” value turn out when AAATCAAG was run?
A: 0.0497

Q: With ACATGACA as the sequence, how does the “PBM E-score” value read?
A: 0.155

Q: ACCGCTTC was tested. Which “PBM E-score” value did it give?
A: -0.207

Q: With CCAGGTGA as the sequence, how does the “PBM E-score” value read?
A: 0.0235

Q: For AGGGGGAC, which “PBM E-score” value is on record?
A: -0.0973

Q: Which “PBM E-score” value does the source give for CTACGTAA here?
A: -0.0165

Q: For ATGCCTGC, which “PBM E-score” value is on record?
A: -0.252

Q: For CATACAGA, which “PBM E-score” value is on record?
A: 0.0209

Q: With ATGGAGGC as the sequence, how does the “PBM E-score” value read?
A: -0.342

Q: How did the “PBM E-score” value turn out when AAGTTCGA was run?
A: 0.0338

Q: CGAGCTTA was tested. Which “PBM E-score” value did it give?
A: -0.145

Q: With CCTGATCC as the sequence, how does the “PBM E-score” value read?
A: -0.00892

Q: With GCCGTCAA as the sequence, how does the “PBM E-score” value read?
A: -0.207

Q: Which “PBM E-score” value does the source give for AAGCTTGT here?
A: -0.146

Q: How did the “PBM E-score” value turn out when GTTTGGCA was run?
A: -0.0961

Q: How did the “PBM E-score” value turn out when CTTCTGCC was run?
A: -0.225

Q: For AGCGACAA, which “PBM E-score” value is on record?
A: -0.0949

Q: For AAGGTTTG, which “PBM E-score” value is on record?
A: 0.0818

Q: With CCTATCTC as the sequence, how does the “PBM E-score” value read?
A: -0.101

Q: With GACGGCTC as the sequence, how does the “PBM E-score” value read?
A: -0.116

Q: For CTGGAGCA, which “PBM E-score” value is on record?
A: -0.309

Q: Which “PBM E-score” value does the source give for TATGGCAA here?
A: -0.153

Q: How did the “PBM E-score” value turn out when AAATACCC was run?
A: -0.0319

Q: GCAAAGCA was tested. Which “PBM E-score” value did it give?
A: -0.135

Q: Which “PBM E-score” value does the source give for GCTCGGCC here?
A: -0.296

Q: Which “PBM E-score” value does the source give for AATCGGGA here?
A: 0.0737

Q: How did the “PBM E-score” value turn out when CTCCCGTC was run?
A: -0.0226

Q: For ACAGTACT, which “PBM E-score” value is on record?
A: 0.106

Q: AGGGCTCA was tested. Which “PBM E-score” value did it give?
A: 0.0211

Q: For CTATCGAC, which “PBM E-score” value is on record?
A: -0.149

Q: With GCCGAAAA as the sequence, how does the “PBM E-score” value read?
A: 0.0564

Q: With CTGTACGC as the sequence, how does the “PBM E-score” value read?
A: -0.0505

Q: How did the “PBM E-score” value turn out when CTAGTGCA was run?
A: -0.0895

Q: Which “PBM E-score” value does the source give for AGTCAACT here?
A: 0.424

Q: How did the “PBM E-score” value turn out when CAATCGGC was run?
A: 0.04

Q: ACAAATTC was tested. Which “PBM E-score” value did it give?
A: -0.0748

Q: CCTGACAG was tested. Which “PBM E-score” value did it give?
A: -0.0099

Q: With GCCGCACC as the sequence, how does the “PBM E-score” value read?
A: -0.218

Q: GCCAAACA was tested. Which “PBM E-score” value did it give?
A: -0.0582

Q: How did the “PBM E-score” value turn out when TGTGCCAA was run?
A: 0.0362

Q: With CAGTATTC as the sequence, how does the “PBM E-score” value read?
A: -0.131

Q: How did the “PBM E-score” value turn out when CACAATAA was run?
A: 0.241

Q: CCAAGCTC was tested. Which “PBM E-score” value did it give?
A: -0.22

Q: With CGCGGTAA as the sequence, how does the “PBM E-score” value read?
A: -0.114

Q: For AGGGCCTC, which “PBM E-score” value is on record?
A: -0.235

Q: AAGGCTGT was tested. Which “PBM E-score” value did it give?
A: -0.161

Q: For GACCCTAC, which “PBM E-score” value is on record?
A: -0.282

Q: How did the “PBM E-score” value turn out when GGTCGAAA was run?
A: -0.231

Q: How did the “PBM E-score” value turn out when ATAGCGAT was run?
A: -0.205

Q: How did the “PBM E-score” value turn out when GGTACTCA was run?
A: 0.381

Q: For CTTTTGTC, which “PBM E-score” value is on record?
A: -0.173

Q: For TATCACAA, which “PBM E-score” value is on record?
A: 0.0279

Q: For GCACCATA, which “PBM E-score” value is on record?
A: -0.118

Q: With CTGCCGTA as the sequence, how does the “PBM E-score” value read?
A: -0.333

Q: How did the “PBM E-score” value turn out when GGTTCGTA was run?
A: 0.0347

Q: How did the “PBM E-score” value turn out when CCCTTCAC was run?
A: -0.0295

Q: Which “PBM E-score” value does the source give for ACAGCCTC here?
A: -0.308

Q: Which “PBM E-score” value does the source give for CATTTTAG here?
A: -0.0477

Q: For CGCTCCAC, which “PBM E-score” value is on record?
A: -0.32

Q: For TCTTTACA, which “PBM E-score” value is on record?
A: 0.105

Q: AGCTAAAA was tested. Which “PBM E-score” value did it give?
A: 0.029

Q: How did the “PBM E-score” value turn out when ATGGCATG was run?
A: -0.0482

Q: ATTCGAAG was tested. Which “PBM E-score” value did it give?
A: 0.15

Q: Which “PBM E-score” value does the source give for TAGAGCAA here?
A: -0.131

Q: GTCGGCGA was tested. Which “PBM E-score” value did it give?
A: 0.141

Q: TGATCGAA was tested. Which “PBM E-score” value did it give?
A: -0.0776

Q: Which “PBM E-score” value does the source give for CAGCTCAG here?
A: -0.107

Q: With ATATTTCC as the sequence, how does the “PBM E-score” value read?
A: 0.074
